Test results published in PubChem BioAssay AID624417 (National Center for Advancing Translational Sciences (NCATS), 2012).
“And” between values parts separate entries of the source, which are not always exact repeats. Equal values may be shown once. Out of some 410,000 compounds screened, about 6,400 (1.6%) were called active. The shares of active, inactive and inconclusive entries below differ from those in the screen. Calls come from the whole dose curve; as a rule, active = well fitted inhibition curve with a large enough effect; inconclusive = small, poorly fitted or top-dose-only effect; inactive = no such curve, though single readings can be large or run the other way. Potencies beside an inconclusive call are fits to weak or partial responses and may not hold up.
Note: nearly all actives have a fitted effect of over 55% in size.
Potency is the fitted concentration of half-maximal effect; tags give direction and shape of the fitted curve.

The compounds below were run against Glucagon-like peptide 1 receptor (Homo sapiens) (UniProt P43220) (assay: qHTS of GLP-1 Receptor Inverse Agonists (Inhibition Mode)). Conditions: HEK293 GLP-1R CRE-luciferase, luminescence, 24 h, GLP-1R form is constitutively active; series mostly up to 38.3 µM.
Chain of UniProt P43220 (P43220 whole entry, looked up): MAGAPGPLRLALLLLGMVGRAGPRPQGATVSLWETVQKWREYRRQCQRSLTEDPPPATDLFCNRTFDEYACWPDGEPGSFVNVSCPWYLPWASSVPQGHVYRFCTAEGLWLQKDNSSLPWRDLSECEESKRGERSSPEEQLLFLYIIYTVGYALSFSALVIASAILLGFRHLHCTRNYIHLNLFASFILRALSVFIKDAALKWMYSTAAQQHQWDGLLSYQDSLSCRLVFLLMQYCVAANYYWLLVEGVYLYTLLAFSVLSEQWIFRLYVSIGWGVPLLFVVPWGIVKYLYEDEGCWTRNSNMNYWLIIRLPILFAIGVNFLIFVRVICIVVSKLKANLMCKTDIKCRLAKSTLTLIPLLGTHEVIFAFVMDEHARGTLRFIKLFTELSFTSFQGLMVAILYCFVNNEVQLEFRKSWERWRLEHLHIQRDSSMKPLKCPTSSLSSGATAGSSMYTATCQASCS
Summary of the method: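 GLP-1R inverse agonism mode: basal reporter luminescence in engineered HEK293 cells measured after one day of compound exposure at 37 deg C, with a 12 min room-temperature detection step.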
In the case of COC(=O)c1ccc(CNC(=O)C2CCC(=O)N(CCN3CCOCC3)C2)cc1 (stereo not given), the Potency is reported as “inactive”.
CC(C)C[C@H](NC(=O)c1nc[nH]c1C(=O)NCc1ccc(CNC(=O)OC(C)(C)C)cc1)C(=O)OC(C)(C)C was tested, and the Potency was inconclusive: 28.2 µM [inhibitor, single point].
For O=c1cc(CN2CCN(S(=O)(=O)c3cccc(Cl)c3)CC2)c2ccc(O)cc2o1, the Potency was inconclusive: 11.2 µM [inhibitor, single point].
With Cc1ccccc1-n1nnnc1SCc1ncc(-c2ccccc2)o1 the Potency was inconclusive: 7.94 µM [inhibitor, partial curve, poor fit].
O=C(Cc1ccc(Br)cc1)N1CCN(c2ccc(F)cc2)CC1 was tested, and the Potency was inconclusive: 14.1 µM [inhibitor, partial curve, poor fit].
CC(C(=O)NCc1ccccc1Cl)n1ccc2cc(S(=O)(=O)N3CCCCC3)ccc21 (stereo not given) was tested, and the Potency was inconclusive: 12.6 µM [inhibitor, single point].
In the case of CC(=O)c1c(C)[nH]c(C(=O)Nc2cccc(C)n2)c1C, the Potency is reported as inconclusive: 11.2 µM [inhibitor, single point].
In the case of Cc1cc2c3nonc3ccc2n1-c1ccccc1, the Potency is reported as inconclusive: 31.6 µM [inhibitor, single point].
With O=C1C=C(N2CCCCC2)c2ccccc2C1=O the Potency was inconclusive: 22.4 µM [inhibitor, single point].
For Cc1ccc2c(c1)C(=O)C(=O)N2Cc1ccc(F)cc1, the Potency was “inactive”.
In the case of COCCN=C1NN=C(c2cc(C)n(CC3CCCO3)c2C)CS1 (stereo not given), the Potency is reported as “inactive”.
In the case of Cc1ccc(-n2ncc(C(=O)NCCCN3CCCCC3)c2C2CCN(C(=O)OC(C)(C)C)CC2)c(C)c1, the Potency is reported as inconclusive: 11.2 µM [inhibitor, partial curve].
For Cc1ccc(C2c3c(-c4cc(C)ccc4O)n[nH]c3C(=O)N2Cc2ccco2)cc1 (stereo not given), the Potency was inconclusive: 14.1 µM [inhibitor, single point].
For Cc1ccc(-n2c(C)cc(C(=O)COc3c(CO)cc(F)cc3CO)c2C)cc1C, the Potency was inconclusive: 11.2 µM [inhibitor, partial curve, poor fit].
For Cc1oc2cc3c(C(=O)N4CCCCC4)c(C)oc3cc2c1C(=O)N1CCCCC1, the Potency was “inactive”.
In the case of OC(c1ccccc1)(c1nc(-c2cc(F)cc(F)c2)cs1)C(F)(F)F (stereo not given), the Potency is reported as inconclusive: 11.2 µM [inhibitor, single point].
In the case of Cc1cccc(Cn2c(=O)n(Cc3ccc(C(=O)NC4CCN(Cc5ccccc5)CC4)cc3)c(=O)c3ccccc32)c1, the Potency is reported as “inactive”.
In the case of COc1ccc(NC(=O)c2nc[nH]c2C(=O)N[C@@H](CC(C)C)C(=O)OC(C)(C)C)cc1, the Potency is reported as inconclusive: 10 µM [inhibitor, partial curve, poor fit].
For Cc1ccc(/C=N/NC(=O)NC23CC4CC(CC(C4)C2)C3)o1, the Potency was inconclusive: 7.94 µM [inhibitor, partial curve, poor fit].
With CC(C)CN1CCC(=O)N(CCSc2ccc(Br)cc2)CC1 the Potency was inconclusive: 10 µM [inhibitor, partial curve, poor fit].
In the case of CCOC(=O)Cc1csc(N/C(=N/S(=O)(=O)c2cc(Br)ccc2OCC)c2ccccc2)n1, the Potency is reported as inconclusive: 3.55 µM [inhibitor, partial curve].
With Clc1ccc(-c2nnc(CNC3CC3)o2)cc1 the Potency was “inactive”.
With COc1ccc(C2CC(=O)C3=C(C2)Nc2ccccc2N(C(=O)C2CC2)C3c2cccnc2)cc1OC (stereo not given) the Potency was “inactive”.
Cc1ccsc1C(=O)NC1CCCCC1C (stereo not given) was tested, and the Potency was inconclusive: 14.1 µM [inhibitor, single point].
For c1ccc(Cc2noc(CN3CCN(Cc4ccc5c(c4)OCO5)CC3)n2)cc1, the Potency was inconclusive: 31.6 µM [inhibitor, partial curve, poor fit].
In the case of O=C(NCCCN1CCOCC1)c1ccc2c(c1)N(Cc1ccc(Cl)cc1)C(=O)c1ccccc1S2=O (stereo not given), the Potency is reported as “inactive”.
Cc1occc1C(=O)N1CCN(C(c2ccccc2)c2ccccc2)CC1 was tested, and the Potency was inconclusive: 12.6 µM [inhibitor, partial curve, poor fit].
For S=C(NCCc1ccccc1)N/N=C/c1c(Cl)cccc1Cl, the Potency was inconclusive: 14.1 µM [inhibitor, single point].
In the case of O=C(c1ccc2c3n(nc2c1)-c1ccccc1CO3)N1CCCCC1, the Potency is reported as inconclusive: 10 µM [inhibitor, single point].
For CC(C)(C)C(=O)CC1(O)C(=O)N(Cc2ccc(Cl)cc2)c2ccccc21 (stereo not given), the Potency was inconclusive: 31.6 µM [inhibitor, partial curve, poor fit].
In the case of Cc1ccc(NNC(=O)c2cccs2)cc1Cl, the Potency is reported as inconclusive: 2 µM [inhibitor, full curve].
O=C(NCC(c1ccco1)N1CCN(c2ccccc2)CC1)c1cccs1 (stereo not given) was tested, and the Potency was inconclusive: 10 µM [inhibitor, partial curve].
For CN1CCCN(C(=O)/C=C/c2ccc(Cl)cc2Cl)CC1, the Potency was active: 7.94 µM.
CCN(CC1COc2ccccc2O1)C(=O)c1ccc(Cl)c(S(=O)(=O)N2CC(C)OC(C)C2)c1 (stereo not given) was tested, and the Potency was inconclusive: 15.8 µM [inhibitor, single point].
For Cc1ccc(S(=O)(=O)c2cnc(SCC(=O)Nc3cccc(Cl)c3)nc2N)cc1C, the Potency was inconclusive: 12.6 µM [inhibitor, partial curve, poor fit].
In the case of CC(C)(C)C(=O)Nc1nnc(-c2ccccc2)c(-c2ccccc2)n1, the Potency is reported as inconclusive: 10 µM [inhibitor, single point].
For Cc1ccccc1NS(=O)(=O)c1nnc(NC(=O)c2ccc(Cl)cc2)s1, the Potency was inconclusive: 28.2 µM [inhibitor, single point].
COc1ccc(C)cc1N(C(=O)CNC(=O)c1ccco1)C(C(=O)NCC1CCCO1)c1ccccc1 (stereo not given) was tested, and the Potency was “inactive”.
CCN(CC)C(=O)Cn1cc(C(=O)C(=O)Nc2ccc3c(c2)OCCO3)c2ccccc21 was tested, and the Potency was inconclusive: 11.2 µM [inhibitor, single point].
With O=S(=O)(Nc1cccc(-c2ccc(N3CCCCCC3)nn2)c1)c1ccc(F)cc1 the Potency was inconclusive: 28.2 µM [inhibitor, single point] and inconclusive: 25.1 µM [inhibitor, partial curve, poor fit].
